Test results as given in the supplement of paper PMC8728848.
Some of the results follow.

Tests used:
Test in all cases: glycan array binding signal (z-score within array); higher = stronger binding
Settings in all cases: glycan notation: IUPAC condensed, linker removed
[1] = target: Man(a1-2)Man(a1-3)[Man(a1-2)Man(a1-6)]Man(a1-6)[Man(a1-2)Man(a1-2)Man(a1-3)]Man(b1-4)GlcNAc(b1-4)GlcNAc
Method in brief: (§1)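 Glycan array data were curated from 3228 arrays in the Consortium for Functional Glycomics database and kept only where the protein sequence was available. Glycan names were converted to IUPAC-condensed notation, and columns mapping to the same glycan were averaged. The binding signal is a within-array Z-score, averaged across arrays of the same protein sequence at different concentrations or buffers and across linkers. Negative Z-scores can be read as non-binding.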

[2] = target: Man(a1-2)Man(a1-3)[Man(a1-6)]Man(a1-6)[Man(a1-2)Man(a1-3)]Man(b1-4)GlcNAc(b1-4)GlcNAc
Method in brief: as §1

[3] = target: Man(a1-2)Man(a1-6)[Man(a1-3)]Man(a1-6)[Man(a1-2)Man(a1-2)Man(a1-3)]Man
Method in brief: as §1

[4] = target: Man(a1-2)Man(a1-6)[Man(a1-3)]Man(a1-6)[Man(a1-2)Man(a1-2)Man(a1-3)]Man(b1-4)GlcNAc(b1-4)GlcNAc
Method in brief: as §1

[5] = target: Man(a1-3)[Man(a1-6)]Man
Method in brief: as §1

[6] = target: Man(a1-3)[Man(a1-6)]Man(a1-6)[Man(a1-2)Man(a1-3)]Man(b1-4)GlcNAc(b1-4)GlcNAc
Method in brief: as §1

[7] = target: Man(a1-3)[Man(a1-6)]Man(a1-6)[Man(a1-3)]Man
Method in brief: as §1

[8] = target: Man(a1-3)[Man(a1-6)]Man(a1-6)[Man(a1-3)]Man(b1-4)GlcNAc(b1-4)GlcNAc
Method in brief: as §1

[9] = target: Man(a1-3)[Man(a1-6)]Man(b1-4)GlcNAc(b1-4)GlcNAc
Method in brief: as §1

[10] = target: Man(a1-3)[Man(a1-6)]Man(b1-4)GlcNAc(b1-4)[Fuc(a1-6)]GlcNAc
Method in brief: as §1

[11] = target: Man(a1-6)Man
Method in brief: as §1

[12] = target: Man(b1-4)GlcNAc
Method in brief: as §1

[13] = target: MurNAc(b1-4)GlcNAc
Method in brief: as §1

[14] = target: Neu5Ac(a2-3)Gal
Method in brief: as §1

[15] = target: Neu5Ac(a2-3)Gal(b1-3)GalNAc
Method in brief: as §1

[16] = target: Neu5Ac(a2-3)Gal(b1-3)GalNAc(b1-3)Gal(a1-4)Gal(b1-4)Glc
Method in brief: as §1

[17] = target: Neu5Ac(a2-3)Gal(b1-3)GalNAc(b1-4)[Neu5Ac(a2-3)]Gal(b1-4)Glc
Method in brief: as §1

[18] = target: Neu5Ac(a2-3)Gal(b1-3)GalNAc(b1-4)[Neu5Ac(a2-8)Neu5Ac(a2-3)]Gal(b1-4)Glc
Method in brief: as §1

[19] = target: Neu5Ac(a2-3)Gal(b1-3)GalNAc6S
Method in brief: as §1

[20] = target: Neu5Ac(a2-3)Gal(b1-3)GlcNAc
Method in brief: as §1

[21] = target: Neu5Ac(a2-3)Gal(b1-3)GlcNAc(b1-2)Man
Method in brief: as §1

[22] = target: Neu5Ac(a2-3)Gal(b1-3)GlcNAc(b1-2)Man(a1-3)[GlcNAc(b1-4)][Neu5Ac(a2-3)Gal(b1-3)GlcNAc(b1-2)Man(a1-6)]Man(b1-4)GlcNAc(b1-4)GlcNAc
Method in brief: as §1

[23] = target: Neu5Ac(a2-3)Gal(b1-3)GlcNAc(b1-2)Man(a1-3)[Neu5Ac(a2-3)Gal(b1-3)GlcNAc(b1-2)Man(a1-6)]Man(b1-4)GlcNAc(b1-4)GlcNAc
Method in brief: as §1

[24] = target: Neu5Ac(a2-3)Gal(b1-3)GlcNAc(b1-3)Gal(b1-3)GlcNAc
Method in brief: as §1

[25] = target: Neu5Ac(a2-3)Gal(b1-3)GlcNAc(b1-3)Gal(b1-4)GlcNAc
Method in brief: as §1

[26] = target: Neu5Ac(a2-3)Gal(b1-3)GlcNAc(b1-3)GalNAc
Method in brief: as §1

[27] = target: Neu5Ac(a2-3)Gal(b1-3)GlcNAc(b1-4)Gal(b1-4)Glc
Method in brief: as §1

[28] = target: Neu5Ac(a2-3)Gal(b1-3)GlcNAc(b1-6)GalNAc
Method in brief: as §1

[29] = target: Neu5Ac(a2-3)Gal(b1-3)GlcNAc6S
Method in brief: as §1

[30] = target: Neu5Ac(a2-3)Gal(b1-3)[Fuc(a1-4)]GlcNAc
Method in brief: as §1

[31] = target: Neu5Ac(a2-3)Gal(b1-3)[Fuc(a1-4)]GlcNAc(b1-3)Gal(b1-3)[Fuc(a1-4)]GlcNAc
Method in brief: as §1

[32] = target: Neu5Ac(a2-3)Gal(b1-3)[Fuc(a1-4)]GlcNAc(b1-3)Gal(b1-4)[Fuc(a1-3)]GlcNAc
Method in brief: as §1

[33] = target: Neu5Ac(a2-3)Gal(b1-3)[GlcNAc(b1-6)]GalNAc
Method in brief: as §1

[34] = target: Neu5Ac(a2-3)Gal(b1-3)[Neu5Ac(a2-6)]GalNAc
Method in brief: as §1

[35] = target: Neu5Ac(a2-3)Gal(b1-3)[Neu5Ac(a2-6)]GlcNAc(b1-3)[Fuc(a1-3)[Gal(b1-4)]GlcNAc(b1-6)]Gal(b1-4)Glc
Method in brief: as §1

[36] = target: Neu5Ac(a2-3)Gal(b1-3)]Neu5Ac(a2-3)Gal(b1-4)]GlcNAc
Method in brief: as §1

[37] = target: Neu5Ac(a2-3)Gal(b1-4)Glc
Method in brief: as §1

[38] = target: Neu5Ac(a2-3)Gal(b1-4)GlcNAc
Method in brief: as §1

[39] = target: Neu5Ac(a2-3)Gal(b1-4)GlcNAc(b1-2)Man
Method in brief: as §1

[40] = target: Neu5Ac(a2-3)Gal(b1-4)GlcNAc(b1-2)Man(a1-3)[GlcNAc(b1-4)][Neu5Ac(a2-3)Gal(b1-4)GlcNAc(b1-2)Man(a1-6)]Man(b1-4)GlcNAc(b1-4)GlcNAc
Method in brief: as §1

[41] = target: Neu5Ac(a2-3)Gal(b1-4)GlcNAc(b1-2)Man(a1-3)[Neu5Ac(a2-3)Gal(b1-4)GlcNAc(b1-2)Man(a1-6)]Man(b1-4)GlcNAc(b1-4)GlcNAc
Method in brief: as §1

[42] = target: Neu5Ac(a2-3)Gal(b1-4)GlcNAc(b1-2)Man(a1-3)[Neu5Ac(a2-3)Gal(b1-4)GlcNAc(b1-2)Man(a1-6)]Man(b1-4)GlcNAc(b1-4)[Fuc(a1-6)]GlcNAc
Method in brief: as §1

[43] = target: Neu5Ac(a2-3)Gal(b1-4)GlcNAc(b1-2)Man(a1-3)[Neu5Ac(a2-6)Gal(b1-4)GlcNAc(b1-2)Man(a1-6)]Man(b1-4)GlcNAc(b1-4)GlcNAc
Method in brief: as §1

[44] = target: Neu5Ac(a2-3)Gal(b1-4)GlcNAc(b1-2)[Neu5Ac(a2-3)Gal(b1-4)GlcNAc(b1-4)]Man(a1-3)[GlcNAc(b1-4)][Neu5Ac(a2-3)Gal(b1-4)GlcNAc(b1-2)[Neu5Ac(a2-3)Gal(b1-4)GlcNAc(b1-6)]Man(a1-6)]Man(b1-4)GlcNAc(b1-4)GlcNAc
Method in brief: as §1

[45] = target: Neu5Ac(a2-3)Gal(b1-4)GlcNAc(b1-2)[Neu5Ac(a2-3)Gal(b1-4)GlcNAc(b1-4)]Man(a1-3)[GlcNAc(b1-4)][Neu5Ac(a2-3)Gal(b1-4)GlcNAc(b1-4)Man(a1-6)]Man(b1-4)GlcNAc(b1-4)GlcNAc
Method in brief: as §1

B1: FliD (Clostridium difficile) (protein)
chain: MSSISPVRVTGLSGNFDMEGIIEASMIRDKEKVNKAKQDQQIVKWKQEIYRDIIKESKNLYDKYLNGDSPNSITNKKAYSATRITSSDESIIVAKGSAGAEKINYQFAVSQMAEPAKVTIKLNSSDPIVQQFPPNASGASSLNIGGVNIPISEQDTTSTIVSKINSLCADNDIRASYSEMTGELIISRKQTGSSSDIDLKVIGNDSLAGQIASDNGITFTTDASGTKSAVVYGKNLEADVTDDQGRVTHISKEQNSFKIDNIDYNVNSKGSAKLVSVTDTEEATKNMKAFVDDYNALMDKVYGLVTTKKSKDYPPLTDEQKDDMTTEEIEKWEKKAKEGILRNDDELRAFVEDIQSMFFGDADTIIALRKLGISEHENYNKKGQISFNADTFSKALIDDSDKVYKALAGYSSNYDDKGMFEKLKKIVFEYSGSSASKLTKKAGMENSSSASQNVYSKQIAEQERNISRLVEKMNDKEKRLYAKYSALESLLNKYSSQMNYFSQAQGN
glycan array binding signal (z-score) [1]: -0.104
glycan array binding signal (z-score) [2]: -0.233
glycan array binding signal (z-score) [3]: -0.192
glycan array binding signal (z-score) [4]: -0.154
glycan array binding signal (z-score) [5]: -0.205
glycan array binding signal (z-score) [6]: 0.082
glycan array binding signal (z-score) [7]: -0.075
glycan array binding signal (z-score) [8]: -0.223
glycan array binding signal (z-score) [9]: -0.208
glycan array binding signal (z-score) [10]: -0.274
glycan array binding signal (z-score) [11]: 0.627
glycan array binding signal (z-score) [12]: -0.16
glycan array binding signal (z-score) [13]: -0.199
glycan array binding signal (z-score) [14]: -0.168
glycan array binding signal (z-score) [15]: -0.182
glycan array binding signal (z-score) [16]: -0.195
glycan array binding signal (z-score) [17]: -0.056
glycan array binding signal (z-score) [18]: -0.219
glycan array binding signal (z-score) [19]: 0.007
glycan array binding signal (z-score) [20]: -0.234
glycan array binding signal (z-score) [21]: -0.097
glycan array binding signal (z-score) [22]: -0.213
glycan array binding signal (z-score) [23]: -0.177
glycan array binding signal (z-score) [24]: -0.261
glycan array binding signal (z-score) [25]: -0.272
glycan array binding signal (z-score) [26]: -0.254
glycan array binding signal (z-score) [27]: -0.207
glycan array binding signal (z-score) [28]: -0.069
glycan array binding signal (z-score) [29]: -0.131
glycan array binding signal (z-score) [30]: -0.192
glycan array binding signal (z-score) [31]: -0.151
glycan array binding signal (z-score) [32]: -0.183
glycan array binding signal (z-score) [33]: -0.113
glycan array binding signal (z-score) [34]: 0.001
glycan array binding signal (z-score) [35]: -0.224
glycan array binding signal (z-score) [36]: -0.184
glycan array binding signal (z-score) [37]: -0.197
glycan array binding signal (z-score) [38]: 0.135
glycan array binding signal (z-score) [39]: 0.47
glycan array binding signal (z-score) [40]: -0.213
glycan array binding signal (z-score) [41]: -0.24
glycan array binding signal (z-score) [42]: -0.21
glycan array binding signal (z-score) [43]: -0.24
glycan array binding signal (z-score) [44]: -0.237
glycan array binding signal (z-score) [45]: -0.269
